Measurements: US20190194315A1 (Novartis, published 2019)

B1: NOV169N31Q-152/375C-77 (antibody, human IgG1, kappa)
heavy: QVQLQQSGPGLVKPSQTLSLTCAISGDSVSSQSAAWNWIRQSPSRGLEWLGRIYYRSKWYNDYALSVKSRITINPDTSKNQFSLQLNSVTPEDTAVYYCARGEGYGREGFAIWGQGTLVTVSSASTKGPSVFPLAPSSKSTSGGTAALGCLVKDYFPCPVTVSWNSGALTSGVHTFPAVLQSSGLYSLSSVVTVPSSSLGTQTYICNVNHKPSNTKVDKRV[human IgG1 Fc with S375C (EU numbers) skipped]
light: DIQMTQSPSSLSASVGDRVTITCRASQTISNTLAWYQQKPGKAPKLLIYAASNLQSGVPSRFSGSGSGTDFTLTISSLQPEDFATYYCQQYLSWFTFGQGTKVEIKRTVAAPSVFIFPPSDEQLKSGTASVVCLLNNFYPREAKVQWKVDNALQSGNSQESVTEQDSKDSTYSLSSTLTLSKADYEKHKVYACEVTHQGLSSPVTKSFNRGEC
modifications: compound 77 on engineered Cys 152 and Cys 375 (EU numbering; positions 158 and 381 of SEQ ID NO 130) by thiol-maleimide linkage; DAR 3.6 to 4.0
B2: NOV169N31Q-KB-22 (antibody, human IgG1, kappa)
heavy: QVQLQQSGPGLVKPSQTLSLTCAISGDSVSSQSAAWNWIRQSPSRGLEWLGRIYYRSKWYNDYALSVKSRITINPDTSKNQFSLQLNSVTPEDTAVYYCARGEGYGREGFAIWGQGTLVTVSSASTKGPSVFPLAPSSKSTSGGTAALGCLVKDYFPEPVTVSWNSGALTSGVHTFPAVLQSSGLYSLSSVVTVPSSSLGTQTYICNVNHKPSNTKVDKRV[human IgG1 Fc skipped]
light: DIQMTQSPSSLSASVGDRVTITCRASQTISNTLAWYQQKPGKAPKLLIYAASNLQSGVPSRFSGSGSGTDFTLTISSLQPEDFATYYCQQYLSWFTFGQGTKVEIKRTVAAPSVFIFPPSDEQLKSGTASVVCLLNNFYPREAKVQWKVDNALQSGNSQESVTEQDSKDSTYSLSSTLTLSKADYEKHKVYACEVTHQGLSSPVTKSFNRGEC
modifications: interchain disulfide cysteine is part of the ketone bridge carrying compound 22; interchain disulfide cysteines re-bridged with 1,3-dichloroacetone (ketone bridge) and oxime-linked to auristatin compound 22; average DAR 3.77

Tests used:
[1] = biological target: T1, Human P-cadherin on the surface of tumor cell lines (human, UniProt P22223 108-829); assay: cell-based or functional assay
T1 sequence (P22223 108-829 limits assumed): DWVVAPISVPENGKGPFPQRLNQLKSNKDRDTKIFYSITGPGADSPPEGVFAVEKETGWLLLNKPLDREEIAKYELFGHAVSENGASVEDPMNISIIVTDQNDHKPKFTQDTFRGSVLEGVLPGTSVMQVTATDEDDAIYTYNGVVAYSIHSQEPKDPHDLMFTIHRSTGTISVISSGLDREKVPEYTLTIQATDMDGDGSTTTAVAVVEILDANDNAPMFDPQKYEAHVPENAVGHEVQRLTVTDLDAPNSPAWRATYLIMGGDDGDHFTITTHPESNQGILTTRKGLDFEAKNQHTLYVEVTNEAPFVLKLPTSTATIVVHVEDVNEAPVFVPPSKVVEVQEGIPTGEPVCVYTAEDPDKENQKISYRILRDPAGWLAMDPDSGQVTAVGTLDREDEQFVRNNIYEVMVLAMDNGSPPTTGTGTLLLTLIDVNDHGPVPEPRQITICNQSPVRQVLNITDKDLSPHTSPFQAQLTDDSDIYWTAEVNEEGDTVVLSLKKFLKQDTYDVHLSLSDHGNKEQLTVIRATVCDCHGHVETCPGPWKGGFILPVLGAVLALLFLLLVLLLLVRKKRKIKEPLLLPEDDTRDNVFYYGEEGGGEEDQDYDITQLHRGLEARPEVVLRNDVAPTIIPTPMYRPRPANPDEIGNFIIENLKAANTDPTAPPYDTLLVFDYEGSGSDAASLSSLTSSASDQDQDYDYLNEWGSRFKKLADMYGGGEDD

[2] = biological target: T1, Human P-cadherin on the surface of …; assay: cell-based or functional assay; remark: listed apart in the source

Binder | IC50 (nM), CellTiterGlo proliferation/survival, HCC70 cells [1] [nM] | IC50 (nM), CellTiterGlo proliferation/survival, HCC1806 cells [1] [nM] | IC50 (nM), CellTiterGlo proliferation/survival, HCC1954 cells [1] [nM] | IC50 (nM), CellTiterGlo proliferation/survival, Scaber cells [1] [nM] | IC50 (nM), CellTiterGlo proliferation/survival, HCC70 cells [2] [nM] | IC50 (nM), CellTiterGlo proliferation/survival, HCC1806 cells [2] [nM] | IC50 (nM), CellTiterGlo proliferation/survival, HCC1954 cells [2] [nM] | IC50 (nM), CellTiterGlo proliferation/survival, Scaber cells [2] [nM]
B1 | 1.19 | 9.53 | 0.896 | 4.08 | – | – | – | –
B2 | – | – | – | – | 0.399 | 1.09 | 0.0759 | 0.946

Where two headings read alike, the source gives them in different places.
